# Test results as given in the supplement of paper PMC7826260.
# The other results are listed elsewhere or left out. Each Rep nickase domain was tested in vitro on the same pool of single strands at 3 µM enzyme and 37 °C for 1 h; the strands have 90 letters, of which the middle is given. A value is the log2 ratio of uncut reads to the pool without enzyme; the lower, the more was cut; hits are not called. Reads are scaled to the total; where an enzyme cuts many sequences, the uncut ones exceed 0.
# How the values were obtained:
# Assay in all cases: uncleaved DNA left, log2 of reads against the no-enzyme library (log2 ratio); higher = less cleavage (more negative = more Rep cleavage of the k-mer); sequences stand for … in CTCGTCCG…ACCGGAGA
# [1] = tested on: T1, Rep nickase domain of Muscovy duck circovirus
# T1 sequence (Rep 1-111, printed without the tag): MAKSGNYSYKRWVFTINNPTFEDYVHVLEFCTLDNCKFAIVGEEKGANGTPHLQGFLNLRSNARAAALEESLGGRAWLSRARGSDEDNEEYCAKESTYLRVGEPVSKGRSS
# Protocol: (§1)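 A pool of 90-nt single-stranded DNAs with seven random bases just before the constant AC of the nick site (name = the seven bases) was cut by 3 µM recombinant His6-SUMO-tagged Rep nickase domain (300 nM DNA, 50 mM HEPES pH 8.0, 50 mM NaCl, 1 mM MnCl2, 1 h, 37 °C, three replicates). Uncut DNA was amplified and sequenced.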
# [2] = tested on: T2, Rep nickase domain of banana bunchy top virus
# T2 sequence (Rep 1-94, printed without the tag): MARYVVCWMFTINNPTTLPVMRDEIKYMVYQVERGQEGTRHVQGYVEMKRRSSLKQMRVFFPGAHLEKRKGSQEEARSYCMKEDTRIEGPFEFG
# Protocol: as §1
# [3] = tested on: T3, Rep nickase domain of cabbage leaf curl virus
# T3 sequence (Rep 1-116, printed without the tag): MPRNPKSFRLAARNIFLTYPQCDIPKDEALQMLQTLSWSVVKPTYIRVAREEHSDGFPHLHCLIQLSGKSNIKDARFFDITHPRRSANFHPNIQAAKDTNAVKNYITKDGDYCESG
# Protocol: as §1
# [4] = tested on: T4, Rep nickase domain of chickpea chlorotic dwarf virus
# T4 sequence (Rep 1-124, printed without the tag): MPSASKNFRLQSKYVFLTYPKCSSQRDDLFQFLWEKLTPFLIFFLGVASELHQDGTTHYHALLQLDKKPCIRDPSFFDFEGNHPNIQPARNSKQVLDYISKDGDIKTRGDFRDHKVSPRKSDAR
# Protocol: as §1
# [5] = tested on: T5, Rep nickase domain of faba bean necrotic yellows virus
# T5 sequence (Rep 1-98, printed without the tag): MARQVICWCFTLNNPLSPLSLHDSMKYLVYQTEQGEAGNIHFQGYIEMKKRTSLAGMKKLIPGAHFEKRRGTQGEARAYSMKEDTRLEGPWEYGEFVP
# Protocol: as §1
# [6] = tested on: T6, Rep nickase domain of maize striate mosaic virus
# T6 sequence (Rep 1-117, printed without the tag): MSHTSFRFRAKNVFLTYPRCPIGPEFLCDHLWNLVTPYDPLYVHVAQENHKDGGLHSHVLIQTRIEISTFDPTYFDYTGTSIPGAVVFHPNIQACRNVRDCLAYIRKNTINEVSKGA
# Protocol: as §1
# [7] = tested on: T7, Rep nickase domain of porcine circovirus 2
# T7 sequence (Rep 2-116, printed without the tag): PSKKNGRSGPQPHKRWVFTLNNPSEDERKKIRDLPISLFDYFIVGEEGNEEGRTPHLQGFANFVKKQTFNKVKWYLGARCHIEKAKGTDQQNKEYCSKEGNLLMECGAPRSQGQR
# Protocol: as §1
# [8] = tested on: T8, Rep nickase domain of tomato golden mosaic virus
# T8 sequence (Rep 1-124, printed without the tag): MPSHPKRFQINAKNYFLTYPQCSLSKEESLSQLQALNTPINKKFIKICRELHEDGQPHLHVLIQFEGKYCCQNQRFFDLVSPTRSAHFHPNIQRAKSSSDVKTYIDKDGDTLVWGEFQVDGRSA
# Protocol: as §1
# [9] = tested on: T9, Rep nickase domain of tomato yellow leaf curl virus
# T9 sequence (Rep 1-136, printed without the tag): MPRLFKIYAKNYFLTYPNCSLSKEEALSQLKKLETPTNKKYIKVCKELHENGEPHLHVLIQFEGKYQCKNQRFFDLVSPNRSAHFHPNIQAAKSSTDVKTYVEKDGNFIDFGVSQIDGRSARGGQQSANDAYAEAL
# Protocol: as §1
# [10] = tested on: T10, Rep nickase domain of wheat dwarf virus
# T10 sequence (Rep 1-137, printed without the tag): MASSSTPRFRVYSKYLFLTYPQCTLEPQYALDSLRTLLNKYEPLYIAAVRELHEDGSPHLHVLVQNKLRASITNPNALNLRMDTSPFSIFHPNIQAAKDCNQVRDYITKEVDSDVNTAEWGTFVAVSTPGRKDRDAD
# Protocol: as §1
Sequence,uncleaved DNA left (log2) [1],uncleaved DNA left (log2) [2],uncleaved DNA left (log2) [3],uncleaved DNA left (log2) [4],uncleaved DNA left (log2) [5],uncleaved DNA left (log2) [6],uncleaved DNA left (log2) [7],uncleaved DNA left (log2) [8],uncleaved DNA left (log2) [9],uncleaved DNA left (log2) [10]
CCAACTA,-0.0911,0.152,-0.118,-2.21,0.0748,-0.6,0.0899,0.00521,-0.00165,0.0941
GCCCATA,0.166,0.089,0.0899,0.255,-0.0138,0.284,0.114,0.109,0.179,0.268
CTAACTA,0.0548,0.0722,-0.295,-1.99,0.179,-0.614,-0.0716,0.0241,0.0997,0.0384
CAGGGGA,0.0931,0.0817,0.61,1.04,0.11,1.5,0.208,0.00683,0.0141,0.0589
CGCCGAC,0.0884,-0.0361,0.196,0.31,-0.118,0.0207,0.0574,-0.0838,-0.0585,0.135
ACGGCCG,-0.0584,-0.0814,-0.891,-0.402,-0.0811,-0.927,0.0331,-0.098,-0.167,-0.116
GCCTGCA,0.0622,0.0314,-0.267,-0.143,0.01,-0.646,0.0506,0.0962,-0.0631,-0.0285
TGCCTGT,-0.21,-0.158,-0.151,0.0989,-0.1,0.5,-0.151,-0.102,-0.157,-0.0575
GTTGTAT,0.149,-0.0234,0.361,0.883,0.0991,1.73,0.165,0.231,0.135,0.149
TCATCAG,0.0784,0.0366,-0.697,-0.439,0.145,-1.15,0.235,0.0717,0.0817,0.0786
ATGCGGT,0.0704,-0.0645,-0.394,-0.325,0.0343,-0.626,0.0618,-0.111,0.00985,-0.112
GGGAATG,0.0374,0.155,0.713,1.88,-0.0415,2.15,0.22,0.0356,0.0606,0.205
CACAGAT,0.109,0.00174,0.222,0.291,0.107,0.699,-0.00337,0.0204,-0.0516,-0.0131
GTAGAGC,0.0917,0.0278,0.136,0.532,0.0135,-0.0768,0.0437,-0.0104,-0.0121,0.148
GCGACGC,0.0167,-0.00368,0.112,0.731,-0.0814,1.26,0.038,-0.0361,-0.114,-0.0239
TACGGTA,-0.0163,-0.15,0.132,-0.71,-0.0386,0.602,-0.17,0.138,-0.139,-0.0926
ACGACGC,-0.0725,-0.174,-0.269,-0.264,-0.172,-0.885,-0.0474,-0.0905,-0.139,-0.0991
TTCGTAG,-0.0309,-0.115,-0.529,-0.739,-0.087,-1.45,0.0357,-0.0405,-0.025,-0.229
ATACATG,0.107,0.0799,-0.438,-0.606,-0.0196,-1.15,0.221,0.094,0.0277,0.0383
AGGCGGC,0.0235,0.00103,-0.0862,0.0316,-0.00566,-0.236,0.041,-0.0685,-0.0988,-0.0897
CGAGCTT,-0.0126,0.0958,0.127,-0.552,-0.0807,0.629,-0.311,-0.0694,-0.02,0.182
GATCCTG,0.0898,0.0935,0.222,1.13,-0.00673,1.38,0.155,0.0192,0.085,0.0863
GTAAAGA,0.0756,0.136,0.298,0.842,0.071,0.848,0.177,0.113,0.0841,0.138
TGAACCG,-0.123,-0.0324,-0.772,-0.511,-0.0269,-0.965,-0.0282,-0.14,-0.0977,-0.0951
TGTGTGT,0.197,0.0126,-0.111,-0.508,0.0593,-0.658,-0.00297,-0.00268,0.115,0.0131
TATCGCA,0.0506,0.0205,-0.441,-1.58,-0.00801,-1.21,-0.0413,-0.0173,-0.00218,-0.02
GTCACCT,0.0528,0.116,0.175,0.341,-0.0495,1.42,-0.0621,1.37e-06,-0.0267,0.0709
GTATTGG,-0.0281,-0.0272,-0.217,-0.216,0.0552,-0.758,3.67e-05,-0.0423,0.00306,-0.0454
CTACTTT,-0.11,-0.0226,-0.442,-2.71,0.0587,-0.517,-0.376,-0.0574,-0.0813,-0.219
TGGTGGT,-0.229,-0.0639,0.0774,0.461,-0.279,1.04,-1.84,-0.0838,-0.0631,-0.106
